Consider 114 molecules from PubChem BioAssay AID488969 (Vanderbilt High Throughput Screening Facility, 2010).

Over roughly 110,000 compounds, “z-score” has its median near -0.1; the highest 2% begin near 2. The list shows a part of the results. Calls of active or inactive are those of the source.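 Rule for the calls: active = z-score in the third read window above 3 or below -3; inactive = the rest.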

This assay deals with Metabotropic glutamate receptor 8 (Rattus norvegicus) (UniProt P70579). Nature of the assay: rat mGluR8 modulators via GIRK flux, primary screen, cell-based, thallium flux, HTS (AID 488969). The conditions noted are these: HEK293 rat mGluR8, GIRK (G protein-gated inwardly rectifying potassium channel) thallium flux, FluoZin2; at 10 µM; stronger effect = higher value; submaximal glutamate (EC20) added with thallium.
UniProt P70579, sequence (P70579 whole entry, looked up): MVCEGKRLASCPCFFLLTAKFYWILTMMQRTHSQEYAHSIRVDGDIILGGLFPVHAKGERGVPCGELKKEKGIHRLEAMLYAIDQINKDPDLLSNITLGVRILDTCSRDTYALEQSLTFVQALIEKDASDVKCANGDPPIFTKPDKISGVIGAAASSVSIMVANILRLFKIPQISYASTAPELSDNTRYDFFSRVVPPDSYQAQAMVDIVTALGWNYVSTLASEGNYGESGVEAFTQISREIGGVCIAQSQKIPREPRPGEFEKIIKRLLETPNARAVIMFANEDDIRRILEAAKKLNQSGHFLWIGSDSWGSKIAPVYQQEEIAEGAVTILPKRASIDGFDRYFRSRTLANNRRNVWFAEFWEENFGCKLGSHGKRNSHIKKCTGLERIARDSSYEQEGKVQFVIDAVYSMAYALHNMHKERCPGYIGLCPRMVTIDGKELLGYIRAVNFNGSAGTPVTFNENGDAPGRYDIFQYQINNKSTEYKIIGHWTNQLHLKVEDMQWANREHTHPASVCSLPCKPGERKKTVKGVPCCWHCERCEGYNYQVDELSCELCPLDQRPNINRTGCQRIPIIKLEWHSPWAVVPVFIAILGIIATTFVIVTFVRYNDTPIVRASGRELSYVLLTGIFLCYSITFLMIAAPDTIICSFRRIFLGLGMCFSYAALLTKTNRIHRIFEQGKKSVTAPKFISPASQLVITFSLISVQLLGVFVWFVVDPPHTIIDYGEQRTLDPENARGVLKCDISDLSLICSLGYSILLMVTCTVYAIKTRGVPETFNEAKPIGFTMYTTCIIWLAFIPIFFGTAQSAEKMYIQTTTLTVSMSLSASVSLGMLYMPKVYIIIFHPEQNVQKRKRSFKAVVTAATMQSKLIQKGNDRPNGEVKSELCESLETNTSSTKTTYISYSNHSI
`CC1(C)C(=O)OC(c2cccn2-c2ccc([N+](=O)[O-])cc2)C2(CCCCC2)C1=O` (centres undefined) displayed a z-score of -1.27.

`COCc1cc(C)nc(N/N=C/c2ccc(Cl)c(Cl)c2)c1C#N`: the z-score was 0.403.

For the molecule `CCOc1ccccc1NC(=O)N1CCCC(c2nc3c(nnn3Cc3ccc(C)cc3)c(=O)[nH]2)C1` (centres undefined), the z-score is -0.761.

The molecule `CC(C)OC(=O)CSc1nc2cccnc2n1-c1ccc(F)cc1` gave a z-score of -0.866.

Molecule `Cc1cc(NC(=O)Cn2c(=O)n(Cc3ccccc3)c(=O)c3ccccc32)no1` came in with a z-score of -0.506.

With `CCOC(=O)C(=NC(C)C)NNc1cc(Cl)ccc1Cl`, the z-score amounted to 0.0498.

Turning to `COc1ccc(-c2cc3ccccc3oc2=O)cc1NC(=O)c1ccc([N+](=O)[O-])o1`, the z-score was -0.137.

`COc1ccc(-n2nc3c(c2NC(=O)Cc2cccc(C)c2)CS(=O)C3)cc1` (centres undefined) had a z-score of -0.22.

`CCOC(=O)C1(C(=O)O)NC(=O)CC1c1ccccc1` (centres undefined) came in with a z-score of -0.132.

Regarding `Cc1c(C(=O)NCc2cccnc2)oc2ccc(S(=O)(=O)N3CCC4(CC3)OCCO4)cc12`, the z-score was active: 5.95.

Molecule `COc1ccc(/C=C(\C#N)C(=O)OCC(=O)Nc2c(C)cccc2C)cc1` yielded a z-score of 0.0869.

In the case of `CCC(=O)Nc1nc2ccccc2n1Cc1ccc(C)cc1`, the z-score stood at 0.127.

In the case of `O=C1/C(=C\c2cccnc2)SC(=S)N1C1CCS(=O)(=O)C1` (centres undefined), the z-score came to 0.0303.

As to `COc1ccc2cc(CN(CC3CCCO3)S(=O)(=O)c3ccccc3)c(=O)[nH]c2c1` (centres undefined), the z-score is -0.0594.

As to `O=C(c1ccccc1)c1cc[n+]([O-])cc1`, the z-score came to 0.107.

The molecule `CC1CCN(c2cc(N3CCOCC3)c([N+](=O)[O-])cc2F)CC1` yielded a z-score of 2.53.

Take `Cc1c(-c2ccccc2)oc2c(C(=O)OCC(=O)Nc3ccc(F)cc3)cccc2c1=O`: the z-score is -0.782.

The molecule `CN1/C(=C\C(=O)c2ccccc2Cl)c2ccccc2CC1(C)C` came in with a z-score of -0.83.

As for `COC(=O)CNS(=O)(=O)c1ccc(OC)cc1`, the z-score came out at 0.822.

`N#Cc1nc(COc2ccc(Cl)cc2Cl)oc1N1CCOCC1` yielded a z-score of -0.66.

The molecule `COc1ccc(-c2cc(C(F)(F)F)nc(SCC(=O)Nc3ccc4c(c3)OCO4)n2)cc1` had a z-score of 0.09.

As for `CC(=O)CC(C)=NCCN=C(C)CC(C)=O`, the z-score was found to be 0.232.

In the case of `CCCS(=O)(=O)N1CCN(CC2CC=CCC2)CC1` (centres undefined), the z-score turned out to be 0.0499.

`Cc1cc(O)c(C2(C(F)(F)F)NCCNC2=O)cc1C` (centres undefined): the z-score is 0.0442.

`CCc1cccc(NC(=O)c2ccc(Cn3nc(C)cc3C)o2)c1` displayed a z-score of -0.223.

In turn, `CCOC(=O)C(NC(=O)CC(C)C)(Nc1sc(C)c(CC)c1C#N)C(F)(F)F` (centres undefined) yielded a z-score of -0.0924.

In turn, `O=C(Nc1nnc(-c2ccccc2SCc2ccccc2)s1)Nc1ccccc1F` yielded a z-score of 0.176.

Take `CCOc1ccc(-c2nnc3n2N=C(c2ccc(OC)cc2)CS3)cc1`: the z-score is -0.208.

`CC1CCCC(C)N1CCCNC(=O)Cn1cc2c(n1)CCCC2` (centres undefined) yielded a z-score of 0.0339.

As to `CCS(=O)(=O)c1ccc2oc(SCC(=O)N3c4ccccc4CC3C)nc2c1` (centres undefined), the z-score was -0.0468.

`Cc1cc(Cl)ccc1OCC(=O)N/N=C1\CCCc2ccccc21` showed a z-score of -0.0439.

In turn, `C/C(=C\C(=O)Nc1cc(C)on1)c1ccccc1` yielded a z-score of -0.0528.

The molecule `O=C(NCC1OCCc2ccccc21)c1ccc(NC(=O)c2ccc(Cl)cc2)cc1` (centres undefined) came in with a z-score of 0.00824.

In turn, `CCCCCCN1C=C/C(=C\C=C(C#N)C#N)c2ccccc21` gave a z-score of -0.103.

As for `CCC(CC)C(=O)Nc1cccc(C(=O)NCCc2ccc(S(N)(=O)=O)cc2)c1`, the z-score stood at 0.732.

`Fc1ccccc1N1CCN(CCCNc2ccc3nncn3n2)CC1` came in with a z-score of 0.731.

`CC(C)c1ccc(NC(=O)C(c2ccccc2)N2CCOCC2)cc1` (centres undefined) gave a z-score of -0.131.

In turn, `Cc1ccc(-n2ncc3c(=O)n(CC(=O)N4CCCc5ccccc54)cnc32)cc1C` came in with a z-score of -0.639.

In turn, `COc1ccccc1NC(=O)CSc1nc(N)cc(N)n1` returned a z-score of -1.

For the molecule `COc1ccc(OC)c(N)c1`, the z-score is 0.27.

Molecule `Cc1cc(C)c(S(=O)(=O)c2ccccc2)c(OC(=O)c2c(Cl)cc(Cl)cc2Cl)n1` showed a z-score of -0.0752.

Regarding `Cc1cc(C(=O)c2ccc(C(C)(C)C)cc2)c(NC(=O)CCl)s1`, the z-score was determined as 0.0681.

Consider `Cc1cc(C)c(-c2csc(NC(=O)c3cc([N+](=O)[O-])ccc3N3CCOCC3)n2)c(C)c1`, for which the z-score was -0.574.

`Cc1nnc(SCC(=O)Nc2ccccc2C(=O)NC2CC2)s1` showed a z-score of -0.136.

Molecule `Clc1cccc(Nc2ncnc3ccc(Br)cc23)c1` displayed a z-score of -0.519.

Regarding `Cc1ccc(C(=O)CSC2=C(C#N)C(c3ccco3)C3=C(CC(C)(C)CC3=O)N2)cc1` (centres undefined), the z-score is -0.558.

On to `CC1=CSC2=NC(=O)/C(=C\c3cccn3-c3ccccc3)C(=N)N12`, for which the z-score is 0.673.

`COc1ccccc1N(CC(=O)Nc1ccc(F)c(F)c1)S(C)(=O)=O` yielded a z-score of 0.555.

The molecule `COc1ccccc1NC(=O)c1oc2ccc(C)cc2c1C` registered a z-score of 0.0493.

On to `CCN(CC1COc2ccccc2O1)C(=S)Nc1ccc(F)cc1` (centres undefined), for which the z-score is -0.33.

Turning to `O=C(CSc1nc(-c2ccccc2)nc2c1Cc1ccccc1O2)Nc1ccccc1`, the z-score was -0.147.

As to `COc1ncnc2c1NC(=O)CS2`, the z-score is 0.198.

As to `CCOc1ccccc1NC(=O)Cc1ccccc1OC`, the z-score was 0.0426.

On to `O=S(=O)(NCCSc1ccccc1)c1cccs1`, for which the z-score stood at 0.639.

Consider `CNC(=S)N/N=C1\C(=O)c2cccc3cccc1c23`, for which the z-score is active: 14.1.

`CCOC(=O)c1ccc(NC(=S)NC2CC(C)(C)NC(C)(C)C2)cc1` yielded a z-score of 0.803.

`O=C(Nn1cnnc1)c1csc2ccccc12` came in with a z-score of -0.0912.

The molecule `Cc1ccc(N2CCN(S(=O)(=O)N(C)C)CC2)cc1Cl` displayed a z-score of 0.249.

Molecule `Cc1cc(C)n2nc(C(=O)Nc3ccc(N4CCOCC4)cc3)nc2n1` registered a z-score of -0.0178.

In turn, `CCSc1ccccc1C(=O)NCc1ccc(OC)cc1` showed a z-score of -0.303.

Molecule `N#CC1=C(N)N(c2ccccc2)C(c2ccco2)C1(C#N)C#N` (centres undefined) had a z-score of -0.548.

In turn, `COc1ccc(C2=Nn3c(nnc3-c3ccco3)SC2)cc1OC` yielded a z-score of -0.259.

The molecule `CCOC(=O)N1CCN(C(=O)C(=O)NNC(=O)COc2ccc(Cl)c(C)c2)CC1` displayed a z-score of 0.261.

`COC(=O)c1c(NC(=O)CN2C(=O)C(=O)N(CC(C)C)C2=O)sc2c1CCCCC2`: the z-score is -0.035.

For the molecule `Cc1ccsc1/C=N/NC(=O)c1cccc(S(=O)(=O)Nc2ccccc2Cl)c1`, the z-score is -0.0762.

`Cc1cccc(OCC(=O)N2CCC(N3CCOCC3)CC2)c1` showed a z-score of -0.0492.

Consider `Cc1ccc(-c2csc(/C(C#N)=C/Nc3ccccc3SC(F)(F)F)n2)c(C)c1`, for which the z-score was 0.02.

`Cc1ccc2oc(-c3ccco3)nc2c1` displayed a z-score of -0.256.

Take `Cc1cccc(S(=O)(=O)Nc2cccc(-c3cn4ccsc4n3)c2)c1`: the z-score was -0.385.

For the molecule `CCc1ccc(N2CC(C(=O)Nc3ccccc3F)CC2=O)cc1` (centres undefined), the z-score stood at 0.00826.

The molecule `CCOC(=O)c1cc(CC)sc1/N=C/c1c(O)ccc2ccccc12` yielded a z-score of 0.0622.

Molecule `O=C(CNC(=O)c1ccco1)NCC(=O)OCc1cccc(Cl)c1` returned a z-score of 0.463.

Molecule `CCOc1cc(CNCc2cccs2)cc(Br)c1OCC` came in with a z-score of -0.539.

As for `C/C(=N/NC(=O)c1ccc(Br)o1)c1ccncc1`, the z-score was -0.0302.

`CCOCC(=O)Nc1nc2c(s1)C(=O)CC(C)(C)C2` showed a z-score of -0.264.

Molecule `COCCNS(=O)(=O)c1ccccc1` registered a z-score of 0.0399.

On to `Clc1ccc2c(c1)C(N1CCNCC1)Cc1ccccc1S2` (centres undefined), for which the z-score was active: 3.92.

The molecule `Cc1cccc(NC(=O)C2CCCN2C(=O)OCC(C)C)c1` (centres undefined) yielded a z-score of 0.00631.

The molecule `Cc1cc(OCCOCCN(C)CCO)cc(C)c1Cl` registered a z-score of 0.392.

Molecule `O=S(=O)(c1ccc(F)c2ccccc12)N1CCCCC1` returned a z-score of -1.43.

For the molecule `C=CCn1c(SCc2nc3cc(C(F)(F)F)ccc3c(=O)[nH]2)nc2sc(CC)cc2c1=O`, the z-score was 0.0244.

Take `Cc1ccc(-c2nnc(SCC(=O)O)n2N)cc1`: the z-score came to 0.74.

`CC(C)Sc1nc2c(c(=O)n(C)c(=O)n2C)n1Cc1ccc(Cl)cc1` gave a z-score of -0.506.

Regarding `O=C(NC1CCCCC1)NC1CCN(S(=O)(=O)c2ccc3c(c2)OCCO3)CC1`, the z-score stood at 0.742.

For the molecule `O=C(Nc1c(F)cc(F)cc1Br)c1cc(-c2ccc(O)cc2)on1`, the z-score is -0.0167.

Turning to `COC(=O)c1ccc(NC(=O)COc2ccc(S(=O)(=O)NC(C)C)cc2)cc1`, the z-score is 0.613.

In turn, `CC1CCc2sc(C(=O)OCC(=O)NCc3ccccc3)cc2C1` (centres undefined) displayed a z-score of -0.173.

Consider `CCOCCCNC(=O)CN(Cc1ccc(Cl)cc1)S(C)(=O)=O`, for which the z-score worked out at 0.482.

Consider `c1ccc(CSc2ncnc3c2cnn3Cc2ccccc2)cc1`, for which the z-score is -0.473.

For the molecule `O=C(Nc1ccccc1)N1CCc2ccccc2C1`, the z-score was -0.169.

`O=c1c2ccccc2nnn1CSc1nnc2ccccn12`: the z-score came to 0.0196.

Consider `O=C(c1cc([N+](=O)[O-])ccc1Cl)N1CCN(c2ccccc2)CC1`, for which the z-score was -0.238.

Molecule `CCC(=O)N(Cc1cc2c(C)ccc(C)c2[nH]c1=O)C1CCCCC1` gave a z-score of -0.433.

Take `COc1cccc(OCC(O)CN2CCC(Cc3ccccc3)CC2)c1` (centres undefined): the z-score is -0.0721.

Turning to `CN(Cc1cnn(C)c1)C(=O)c1cc2ccccc2oc1=O`, the z-score is -0.11.

Regarding `COc1ccc(-c2nc3nc(C)cc(C)n3n2)cc1`, the z-score turned out to be 0.281.

`CN1CC(c2ccc(Cl)c(Cl)c2)[C@@]2(COc3ccccc3C2=O)[C@@]12C(=O)Nc1ccccc12` (some centres undefined) gave a z-score of 0.103.

`OCCN1CCN(c2nc(-c3ccccc3)c3cc(Cl)ccc3n2)CC1` yielded a z-score of -0.163.

`CSc1nnc(C2CCCN2)n1C` (centres undefined) yielded a z-score of 0.383.

On to `COc1cccc(C2NC(c3cccc(OC)c3O)C(C)C(=O)C2C)c1O` (centres undefined), for which the z-score was -0.951.

In turn, `COC(=O)c1cc(NS(=O)(=O)c2ccc(NC(C)=O)cc2)cc(C(=O)OC)c1` gave a z-score of 0.683.

The molecule `Cc1nc2ccccc2n1CC(=O)OCC(=O)Nc1ccc2c(c1)OCCO2` showed a z-score of 0.0802.

`Cc1ccc(-n2c(O)c(C=NCc3ccccn3)c3ccccc3c2=O)cc1`: the z-score is -0.774.

For `COc1ccc(NC(=O)C(NC(=O)CNC(C)=O)c2ccc(C)cc2)cc1` (centres undefined), the z-score stood at 0.128.

For `C=C(Cl)COc1ccc2c(CCCC)cc(=O)oc2c1`, the z-score is -0.0779.

For `O=C(NC(=S)N1CCOCC1)c1ccc([N+](=O)[O-])cc1`, the z-score amounted to 0.875.

In turn, `CC(OC(=O)c1ccc(NS(=O)(=O)c2cccs2)cc1)C(=O)N(C)C1CCCCC1` (centres undefined) registered a z-score of 0.149.

As for `CC1=C(C#N)C(=O)NC(C)(C)C1`, the z-score was found to be 0.0694.

In turn, `CCCCNCCCOc1cc(Cl)ccc1Cl` came in with a z-score of 1.58.

As to `CS(=O)(=O)Nc1ccc(C(=O)Nc2ccccc2C(=O)N2CCCC2)cc1`, the z-score is -0.552.

`COc1cc(/C=N/NC(N)=S)ccc1OCC(=O)N1CCOCC1` displayed a z-score of -0.292.

On to `O=C(CCN1CCCC1)Nc1ccccc1`, for which the z-score was -0.0263.

`Cc1cccc(NC(=O)C2(C)CC3c4ccccc4C2c2ccccc23)c1C` (centres undefined) came in with a z-score of -0.106.

As for `Cc1ccc(-c2n[nH]c(=S)n2/N=C/c2ccc(C)o2)cc1`, the z-score is -1.27.
